Reference: PMC9574860, “Chemical Toolkit for PARK7: Potent, Selective, and High-Throughput” (Journal of Medicinal Chemistry, 2022)
The campaign covered roughly 7,900 compounds. About 400 (5.1%) showed an effect of 50% or more. Some of the results follow.

These compounds were tested against Parkinson's disease protein 7 (PARK7/DJ1) (human, UniProt Q99497) (assay: primary screen, percent inhibition; read as competition with a fluorescent probe by fluorescence polarization; higher = more effect of the substance). Details: 100 µM.
Sequence of Parkinson's disease protein 7 (PARK7/DJ1) (Q99497 whole entry, looked up, the tested form may be a part): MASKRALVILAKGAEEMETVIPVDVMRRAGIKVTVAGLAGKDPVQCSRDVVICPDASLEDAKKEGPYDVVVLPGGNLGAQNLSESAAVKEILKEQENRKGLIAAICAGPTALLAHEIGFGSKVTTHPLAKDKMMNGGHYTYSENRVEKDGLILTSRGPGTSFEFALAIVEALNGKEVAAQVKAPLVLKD
In short: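 Covalent fragments at 100 μM final were incubated 2 h with 0.2 μM PARK7, then 20 nM probe JYQ-107 added for a further 2 h. Fluorescence polarization read at 480/520 nm; relative FP loss versus reference controls gave remaining enzyme activity.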
With `N#Cc1cccc(OCC(F)(F)F)n1` the Inhibition % was -0.809%.
`Cc1cc(C)n(CC2CCCCN2C2CC(C)OC2=O)n1` (stereo not drawn) showed an Inhibition % of 7.52%.
For `N#Cc1ccn(-c2ccccc2)n1`, the Inhibition % was 6.25%.
`C=CC(=O)NC1CCN(C)C1c1ccccc1` (stereo not drawn) gave an Inhibition % of 6.77%.
`N#Cc1ncc(O)cn1` showed an Inhibition % of 2.25%.
`O=C(NCCC1=CCOCC1)c1cccnc1S` was tested, and the Inhibition % was 2.7%.
Compound `O=C(O)c1ccnnc1S` has an Inhibition % of 83.3%.
`Cl.ClCCNC1CCCCC1` showed an Inhibition % of 1.36%.
`NC(=O)c1coc(C(=O)CCl)c1` was tested, and the Inhibition % was 96.3%.
`CC1Cc2cc(S(N)(=O)=O)ccc2N1C(=O)CCl` (stereo not drawn) showed an Inhibition % of 23.7%.
Compound `Cc1ccc(NC(=O)Cn2cnc(C#N)n2)cc1C` has an Inhibition % of -3.95%.
For `Cc1cc(S(=O)(=O)n2cccn2)c(Cl)cc1Cl`, the Inhibition % was 11.9%.
For `COc1ccc(C=C(C#N)C(N)=O)c(OC)c1`, the Inhibition % was 1.55%.
In the case of `C=CC(=O)N1CCN(C(=O)CC(F)(F)F)CC1`, the Inhibition % is reported as 12.4%.
For `O=C(Nc1ccc(F)nc1)c1cccnc1S`, the Inhibition % was 8.16%.
With `OCC1(CC2CO2)CCOCC1` (stereo not drawn) the Inhibition % was 15.8%.
`N#Cc1ncccc1OCCc1ccccc1` gave an Inhibition % of 13.6%.
`Cn1cc(CN[C@H]2CCO[C@@H]2c2ccnn2C)cc1C#N` was tested, and the Inhibition % was 7.61%.
`CN(C)C(=O)Oc1ccc2ccccc2c1` showed an Inhibition % of 2.87%.
`O=c1c2ccccc2cnn1CC1CO1` (stereo not drawn) was tested, and the Inhibition % was 8.19%.
Work on `N#Cc1ncn(Cc2ccc(F)cc2Cl)n1` yielded an Inhibition % of 0.898%.
`CN(C)c1oc(CO)nc1C#N` was tested, and the Inhibition % was 4.81%.
Work on `C=CC(=O)NC(c1nc(C)cs1)C(F)(F)F` (stereo not drawn) yielded an Inhibition % of 6.31%.
In the case of `C=CC(=O)NC(c1ccncc1)c1cc(F)ccc1F` (stereo not drawn), the Inhibition % is reported as 5.39%.
`C=CC(=O)NCCN1C(=O)Cc2ccccc21` showed an Inhibition % of 11%.
In the case of `CO[C@H]1C[C@@H](C(N)=O)N(Cc2cc(C#N)n(C)c2)C1`, the Inhibition % is reported as 9.5%.
In the case of `C=CC(=O)N1CCOC(CCC)C1` (stereo not drawn), the Inhibition % is reported as 11%.
`Cc1cc(C)nc(C#N)c1` gave an Inhibition % of 9.14%.
`CC1CC(NC(=O)c2c[nH]c(C#N)c2)=NO1` (stereo not drawn) was tested, and the Inhibition % was 11.6%.
`Cc1ccsc1C=C(C#N)C(=O)NCC1CCCO1` (stereo not drawn) gave an Inhibition % of 2.9%.
In the case of `C=CC(=O)NC1CCN(c2ccccc2)C1=O` (stereo not drawn), the Inhibition % is reported as 10.9%.
Work on `C=CC(=O)N1C[C@@H]2CSC[C@]2(C)C1` (racemic) yielded an Inhibition % of 9.51%.
`C=CC(=O)N1CCSCC1(C)C` was tested, and the Inhibition % was 9%.
`O=C(CCl)N1CCCCCCC1` showed an Inhibition % of 28.6%.
`O=C(CN1C(=O)CCC1=O)Nc1ccc(Cl)cc1F` gave an Inhibition % of 1.92%.
Compound `Cc1ccc2nc(-c3ccc(NC(=O)CCl)cc3)sc2c1` has an Inhibition % of 5.11%.
`CC1CC1C(=O)N1CCN(C(=O)Oc2ccccc2)CC1` (stereo not drawn) gave an Inhibition % of 3.44%.
Work on `C=CC(=O)N(CC(N)=O)C1CC1` yielded an Inhibition % of 10.4%.
Compound `C=CC(=O)N1CCN(C2CC2)C(C#N)C1` (stereo not drawn) has an Inhibition % of 17%.
For `N#CC(=Cc1cccs1)C(N)=O`, the Inhibition % was 10.8%.
For `Cc1cn(S(=O)(=O)c2ccc(Cl)c(C)c2Cl)cn1`, the Inhibition % was 7.53%.
With `Cc1csc(CC(=O)NNC(=O)CCl)n1.Cl` the Inhibition % was 0.415%.
`CN(Cc1ccc(O)cc1)c1ccc(C#N)nc1` was tested, and the Inhibition % was 8.06%.
In the case of `C=CC(=O)NC[C@@H]1C[C@H](F)CN1c1nnc(C)o1`, the Inhibition % is reported as 6.39%.
`CCOC(=O)c1c(NC(=O)CCl)sc2c1CCC(C)C2` (stereo not drawn) showed an Inhibition % of 0.794%.
Compound `CC1CC1C(=O)N1CC(CS(=O)(=O)F)C1` (stereo not drawn) has an Inhibition % of 16.8%.
For `O=C1OCCC1Sc1nc2ccc(Cl)cc2[nH]1` (stereo not drawn), the Inhibition % was 7.91%.
`CC(N)c1ccc(B2OC(C)(C)C(C)(C)O2)cc1F.Cl` (stereo not drawn) was tested, and the Inhibition % was 2.11%.
In the case of `Cl.O=S(=O)(F)C1CCCNC1` (stereo not drawn), the Inhibition % is reported as 8.33%.
`Cl.O=C(O)C1CCN(C(=O)C=Cc2ccccc2F)C1` (stereo not drawn) gave an Inhibition % of 3.63%.
In the case of `Cc1noc2ncc(S(=O)(=O)OCC(F)(F)F)cc12`, the Inhibition % is reported as 18.2%.
With `O=C1OCCC1N1CCOC(c2nccs2)C1` (stereo not drawn) the Inhibition % was 13.9%.
Compound `CC1CCN(C(=O)CCl)C2CCCCC12` (stereo not drawn) has an Inhibition % of 18.1%.
For `C=CC(=O)NC(=O)NC12CC3CC(CC(C3)C1)C2`, the Inhibition % was 3.27%.
In the case of `O=C(CCl)N(Cc1ccccc1)c1ccccc1`, the Inhibition % is reported as 10.7%.
For `CCc1cc(S(=O)(=O)n2ccnc2)ccc1OC`, the Inhibition % was 7.72%.
Compound `CS(=O)(=O)n1c(=O)oc2ccccc21` has an Inhibition % of 44.3%.
`CN(Cc1ccncc1)S(=O)(=O)C=Cc1ccccc1` was tested, and the Inhibition % was 11.5%.
`N#Cc1nccnc1N1CCC(c2ccsc2)CC1` showed an Inhibition % of 7.7%.
`N#Cc1nc(N2CC[C@H](O)C2)ccc1Cl` showed an Inhibition % of 9.73%.
Compound `N#Cc1ccc(NCCc2cccc(F)c2)cn1` has an Inhibition % of 1.64%.
With `CCN(Cc1ccc2c(c1)OCCO2)C(=O)CCl` the Inhibition % was 17.9%.
For `C=CC(=O)NCC1CCCCC(F)(F)C1` (stereo not drawn), the Inhibition % was 6.18%.
In the case of `CC(C)NC(=O)C(C#N)=Cc1cccc(Cl)c1`, the Inhibition % is reported as 7.34%.
`Cn1c(S)nc2sccc2c1=O` showed an Inhibition % of 5.34%.
`N#CC(=Cc1ccc(N2CCOCC2)cc1)C(N)=O` was tested, and the Inhibition % was 12.7%.
Work on `CC(C)NC(=O)C(C#N)=Cc1cc(F)ccc1F` yielded an Inhibition % of 1.67%.
`N#Cc1ccc(C(F)(F)F)nc1S` was tested, and the Inhibition % was 14.7%.
`N#CC1(CCCl)CCCCC1` showed an Inhibition % of 3.15%.
Work on `C=CC(=O)NC(Cn1cncn1)c1ccccc1` (stereo not drawn) yielded an Inhibition % of 8.82%.
`N#Cc1nc2cc(Cl)ccc2o1` was tested, and the Inhibition % was 5.08%.
`CCc1nc(CNc2ccc(C#N)nc2)cs1` was tested, and the Inhibition % was 4.33%.
`C=CC(=O)NC1CC2(CCCC2)Oc2ccccc21` (stereo not drawn) gave an Inhibition % of 1.13%.
In the case of `COCc1cccc(SC(=O)N(C)C)c1`, the Inhibition % is reported as 29.5%.
Work on `N#Cc1cccc(C(=O)O)n1` yielded an Inhibition % of 5.26%.
For `O=c1[nH]c(-c2ccncc2)no1`, the Inhibition % was 11.2%.
`CC(NS(=O)(=O)C=Cc1ccccc1)C(=O)O` (stereo not drawn) was tested, and the Inhibition % was 8%.
Work on `CC1(C)OB(c2cc(Cl)ccc2N)OC1(C)C` yielded an Inhibition % of 13.4%.
Compound `O=C(CCl)Nc1ccc(Br)cc1F` has an Inhibition % of 71.1%.
Compound `C=CC(=O)N1CCNC(=O)C1` has an Inhibition % of 11.3%.
`N#Cc1ccc(S(=O)(=O)N2CCC[C@H]3CCCC[C@H]32)cn1` gave an Inhibition % of 7.31%.
